According to PubChem BioAssay AID463173 (ICCB-Longwood Screening Facility, Harvard Medical School, 2010):
In all, about 52,000 compounds went through this assay and about 1,700 (3.3%) were called active. No stated cut-off is given here; in the data, active means survival mostly below about 52% (no sharp cut-off); inactive means mostly above about 56%. This is one part of the list.

Test system: Wild type
Assay: growth inhibition of S. aureus wild type versus tarO mutant, primary screen, teichoic acid synthesis inhibitors, RN4220, OD600 (AID 463173)
Conditions: S. aureus RN4220 wild type/DeltatarO growth, OD600, 18 h, stronger effect = lower value, screened at 18.75 µg/mL (by protocol)

SMILES	survival
Cc1ccc(C(C)C)c(OC(C)C(=O)NCC2(N(C)C)CCCCC2)c1 (stereo not given)	inactive: 111%
COc1ccc(S(=O)(=O)Nc2cc(S(=O)(=O)c3ccccc3)c(O)c(C)c2C)cc1	inactive: 67%
Cc1cc(OC(C)C(=O)Nc2sc3c(c2C(N)=O)CCCC3)ccc1Cl (stereo not given)	inactive: 82%
CC(NC(=O)CN1C(=O)c2cccnc2Oc2ccc(Cl)cc21)c1ccccc1 (stereo not given)	inactive: 74%
COc1ccccc1NC(=O)CCN1CC(C)CC(C)C1 (stereo not given)	inactive: 107%
CCOc1ccccc1CNc1nc2nc(C)cc(C)n2n1	inactive: 88%
O=C(NCCCN1CCN(c2ccccc2)CC1)c1ccc2nc(Cc3ccccc3)oc2c1	inactive: 79%
Cc1ccc(Cn2c(C(C)NC(=O)c3ccccc3)nc3ccccc32)cc1 (stereo not given)	inactive: 91%
Nc1ccc(Oc2ccc(C(=O)O)c(C(=O)O)c2)cc1	inactive: 106%
CCOC(=O)c1c(C)[nH]c(CCC(=O)Nc2ccc(OC)c(OC)c2)c1C	inactive: 65%
Cc1noc(C)c1S(=O)(=O)N1CCC(C(=O)N2CCN(c3cccc(C(F)(F)F)c3)CC2)CC1	inactive: 81%
CC(C)NC(=O)CCC(=O)N1Cc2ccccc2Oc2ncccc21	active: -2%
Cn1ccc2cc(S(=O)(=O)N3CCN(C(=O)Nc4ccc(F)cc4F)CC3)ccc21	inactive: 82%
Cc1nc(N2CCCCC2)c(C#N)c2c1COC(C)(C)C2	inactive: 111%
CCC1CCCCN1C(=O)CSc1nc2c([nH]c3ccccc32)c(=O)n1-c1ccc(OC)cc1 (stereo not given)	inactive: 19%
C=Cn1c(=N)n(C)c2ccccc21	inactive: 111%
COc1ccc(C2CC(=O)c3cc(-c4nc(-c5ccc(Cl)cc5)cs4)c(=O)[nH]c3C2)cc1OC (stereo not given)	inactive: 103%
CC1Cc2ccccc2N1S(=O)(=O)c1nnc(NC(=O)c2ccccc2)s1 (stereo not given)	inactive: 18%
COC(=O)c1nnn(CC(=O)NC(=O)Nc2c(C)cccc2C)c1C(=O)OC	inactive: 65%
CCn1cc2nc(SCC(=O)Nc3ccccc3C(F)(F)F)n(Cc3ccc(C)cc3)c(=O)c2n1	inactive: 119%
NS(=O)(=O)c1ccc(NC(=O)C2Cc3ccccc3N2C(=O)c2ccccc2)cc1 (stereo not given)	inactive: 86%
CCn1cc(C(=O)N2CCN(c3cccc(C)c3C)CC2)c2cc(OC)c(OC)cc2c1=O	inactive: 150%
Cc1ccccc1C(=O)n1nc(-c2cccnc2)nc1NCc1ccccc1	inactive: 98%
CCCCN(CC)CCCNC(=O)c1nn(C)c2c1CSc1ccccc1-2	inactive: 100%
COc1ccc(OC)c(CCNC(=O)Cn2ncc3c([nH]c4ccccc43)c2=O)c1	inactive: 124%
